In PubChem BioAssay AID1030 (National Center for Advancing Translational Sciences (NCATS), 2008):
About 16,000 (7.3%) of roughly 220,000 compounds were called active. Inconclusive results, whose numbers are uncertain, are shown with a selection of clear calls. The call rests on the fitted dose curve; in most records, active means well fitted inhibition curve with a large enough effect (not every such curve was filed as active); inconclusive means small, poorly fitted or top-dose-only effect, or another doubt; inactive means no such curve, though single readings can be large or run the other way. Where the call is inconclusive, the potency comes from a doubtful curve fit.

Biological target: Aldehyde dehydrogenase 1A1 (Homo sapiens) (UniProt P00352)
Assay: qHTS Assay for Inhibitors of Aldehyde Dehydrogenase 1 (ALDH1A1);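 on activity, negative = inhibition: plate controls were no enzyme wells and a reference inhibitor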
Details: Purified ALDH1A1, NADH fluorescence, propionaldehyde substrate; series mostly up to 75.3 µM; activity, negative = inhibition: at the top concentration
Potency means the concentration at half of the fitted maximal effect; tags describe the fitted curve by direction and shape.

Chain of UniProt P00352 (P00352 whole entry, looked up): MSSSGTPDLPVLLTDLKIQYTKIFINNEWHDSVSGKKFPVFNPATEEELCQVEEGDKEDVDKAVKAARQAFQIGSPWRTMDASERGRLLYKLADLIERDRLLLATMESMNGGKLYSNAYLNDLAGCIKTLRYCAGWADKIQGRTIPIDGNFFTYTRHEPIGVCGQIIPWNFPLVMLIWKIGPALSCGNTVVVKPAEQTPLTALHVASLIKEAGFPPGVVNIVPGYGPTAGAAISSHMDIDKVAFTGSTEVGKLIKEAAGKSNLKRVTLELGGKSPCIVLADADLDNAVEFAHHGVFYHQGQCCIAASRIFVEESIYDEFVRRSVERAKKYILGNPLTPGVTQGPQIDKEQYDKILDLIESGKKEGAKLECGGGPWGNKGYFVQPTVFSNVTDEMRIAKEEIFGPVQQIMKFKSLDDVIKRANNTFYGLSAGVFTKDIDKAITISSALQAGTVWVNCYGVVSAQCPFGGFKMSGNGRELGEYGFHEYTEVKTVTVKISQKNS

Potency, active:
CCOC(=O)/C(C#N)=C/c1cc(C)n(-c2ccccc2)c1C 11.2 µM
CS/C(=N\S(=O)(=O)c1cccs1)NC(=O)CSc1nc2ccccc2s1 28.2 µM
O=C(CNc1ccc2c(c1)OCO2)N/N=C\c1cn(Cc2ccc(F)cc2)c2ccccc12 2 µM
CC(C)OC(=O)CSc1nnc(-c2ccc(C(C)(C)C)cc2)n1N 17.8 µM
Cc1cnnn1-c1ccc(C(=O)CCl)cc1 0.891 µM
COc1ccc(C2NC(=S)N(c3ccccc3)C(C)=C2C(=O)Nc2ccccc2)cc1 (configuration not stated) 2 µM
Cc1ccc(S(=O)(=O)Nc2nc3ccc(S(=O)(=O)N4CCCC4)cc3s2)cc1 0.158 µM
O=C(CSc1nnnn1C1CC2CCC1C2)Nc1ccnc2ccccc12 (configuration not stated) 2.51 µM
CCN1C(=O)C(CC(=O)Nc2ccc(OC)cc2)N(CCc2ccccc2)C1=S (configuration not stated) 2 µM
NC(=S)NNc1cc(Cl)cc(Cl)c1 2 µM
COc1ccccc1NS(=O)(=O)c1cc(NC(=O)C2CCCC2)ccc1N1CCOCC1 10 µM
Cc1ccc(S(=O)(=O)NC(C)(C)CSc2nnc(Nc3ccccc3)s2)cc1 20 µM
CCOC(=O)C(C)Sc1nc2c(c(=O)[nH]c(=O)n2C)n1Cc1ccc(Cl)cc1 (configuration not stated) 17.8 µM

Potency, inconclusive:
O=C(CCC1CCCN(C(=O)CC2=CCCCC2)C1)N1CCN(c2ccccn2)CC1 (configuration not stated) 28.2 µM [inhibitor, partial curve]
Cc1ccc(C)n1CCN1CCN(C(=O)c2ccc(Cl)cc2)CC1 39.8 µM [inhibitor, single point]
Cc1ccc(CS(=O)(=O)c2ccc(C(=O)N3CCCCC3)cc2[N+](=O)[O-])cc1 39.8 µM [inhibitor, single point]
CCOc1ccccc1OCCCC(=O)N1CCN(S(=O)(=O)c2cccc(F)c2)CC1 39.8 µM [inhibitor, single point]
O=C(COC(=O)c1ccncc1)c1ccc(Cl)c(Cl)c1 35.5 µM [inhibitor, single point]
CCc1nnc(NS(=O)(=O)c2ccc(N=Cc3c(C)[nH]n(-c4cccc(Cl)c4)c3=O)cc2)s1 18.9 µM [inhibitor, partial curve, poor fit]
COc1cccc(C2CC(c3cccs3)=NN2C(=O)CSc2nc3c(cnn3-c3ccc(F)cc3)c(=O)[nH]2)c1OC (configuration not stated) 31.6 µM [inhibitor, partial curve]
C(=C\c1nc2ccccc2[nH]1)/c1ccccc1 22.4 µM [inhibitor, partial curve]
COc1ccc(C(=O)CSc2nnc(-c3ccco3)n2C)cc1 39.8 µM [inhibitor, single point]
CCOC(=O)N1CCN(C(=O)c2ccc3nc(N4CCC(C)CC4)sc3c2)CC1 39.8 µM [inhibitor, single point]
CC(OC(=O)CNC(=O)C12CC3CC(CC(C3)C1)C2)C(=O)Nc1ccc(N2CCOCC2)cc1 (configuration not stated) 39.8 µM [inhibitor, single point]
C/C(=N/NC(=O)c1ccc2c(c1)OCO2)c1ccc(NC(=O)C(F)(F)F)cc1 28.2 µM [inhibitor, single point]
CCOC(=O)c1ccc(N/C=C2/CCCC(C)C2=O)cc1 (configuration not stated) 35.5 µM [inhibitor, single point]
CCOC(=O)C1CCN(C(=O)C(C)c2ccc([N+](=O)[O-])cc2)CC1 (configuration not stated) 28.2 µM [inhibitor, partial curve]
N#CC1(C#N)C(c2ccccc2)OC23CCCCC2C1(C#N)C(=N)O3 (configuration not stated) 28.2 µM [inhibitor, partial curve]
CCC(=O)N1CCN(c2ccc(Cl)cc2NC(=O)Cc2ccc(Cl)cc2)CC1 28.2 µM [inhibitor, partial curve]
O=[N+]([O-])c1cccc(-c2nnc(-c3ccccc3)o2)c1 8.91 µM [inhibitor, single point]
CCOc1cc(NC(=O)c2ccco2)c(OCC)cc1NC(=O)COc1ccccc1 39.8 µM [inhibitor, single point]
CCOCCCNC(=S)N1CCCN(c2nc3cc(C)ccc3cc2C#N)CC1 35.5 µM [inhibitor, partial curve]
CCCCN=C1NC(=O)C(CC(=O)NCCc2ccc(OC)cc2)S1 (configuration not stated) 35.5 µM [inhibitor, single point]
CCN(CC)c1ccc(-c2n[nH]c(=S)n2-c2ccccc2)cc1 14.1 µM [inhibitor, partial curve]
Cc1onc(-c2c(Cl)cccc2Cl)c1-c1nc2cc(Cl)ccc2c(=O)o1 31.6 µM [inhibitor, single point]
Cc1cccc(Cc2nnc(NC(=O)c3cccc(S(=O)(=O)N4CCOCC4)c3)s2)c1 39.8 µM [inhibitor, single point]
Cc1cc(NC(=O)COC(=O)c2ccc(S(=O)(=O)N3CCCc4ccccc43)cc2)no1 8.91 µM [inhibitor, single point]
O=C1CCC(=O)N1CCOP1(=O)COc2ccccc2OC1 39.8 µM [inhibitor, single point]
O=C(O)CCCC(=O)N1CCN(c2cccc(Cl)c2)CC1 31.6 µM [inhibitor, single point]
COc1cc(NC(=O)Nc2cccc(C(C)=O)c2)cc(OC)c1OC 39.8 µM [inhibitor, single point]
CC(C)NC(=O)CSc1nc2ccccc2n1-c1ccccc1 39.8 µM [inhibitor, single point]
O=S1(=O)NC2CCCCCN2c2ccc(F)cc21 (configuration not stated) 39.8 µM [inhibitor, single point]
CC1CC(C)CN(c2ncnc3c2cnn3-c2ccc(Cl)cc2)C1 (configuration not stated) 35.5 µM [inhibitor, single point]
Cc1nc2c(C(=O)NCc3ccc4c(c3)OCO4)cnn2c(C)c1Cc1ccc(F)cc1Cl 35.5 µM [inhibitor, single point]
COC(=O)c1cccc(NC(=O)CSc2nc(=O)cc(N)n2-c2ccccc2)c1 25.1 µM [inhibitor, single point]
O=C(NCCN1CCOCC1)c1cc2c(=O)n3ccccc3nc2n1Cc1ccccc1 31.6 µM [inhibitor, partial curve]
CCCc1ncc(C(O)(c2ccccc2)c2ccc(C)cc2)n1C (configuration not stated) 39.8 µM [inhibitor, single point]
COCC(=O)N1CCC2(CC1)CCN(c1ccccc1)CC2 25.1 µM [inhibitor, single point]
CC(=O)CC1OC(=O)C(Br)=C1NCc1ccccc1 (configuration not stated) 35.5 µM [inhibitor, single point]
CCOC(=O)c1c(NS(C)(=O)=O)sc2c1CCC(C)C2 (configuration not stated) 31.6 µM [inhibitor, single point]
CCn1ccnc1CN(C)C(=O)c1cc(COc2c(F)cccc2F)on1 39.8 µM [inhibitor, single point]
CCOC(=O)c1nnc(-c2ccccc2)nc1N1CC(C)OC(C)C1 (configuration not stated) 39.8 µM [inhibitor, single point]
c1ccc2c(-c3nn4nnnc4c4ccccc34)cccc2c1 17.8 µM [inhibitor, partial curve]
Cc1ccc(S(=O)(=O)Oc2cccc(N3C(=O)C4CC=CCC4C3=O)c2)cc1 (configuration not stated) 14.1 µM [inhibitor, partial curve]

activity, negative = inhibition, inactive:
COc1ccc(Cn2c(=S)[nH]c3cc(OC)c(OC)cc3c2=O)cc1 -10.9%
Cc1ccc(N2CC(C(=O)N/N=C/c3cccc([N+](=O)[O-])c3)CC2=O)cc1 (configuration not stated) -14%
Cc1ccc(C(=O)C2CCN(CC(=O)N3CCN(c4ccc(F)cc4)CC3)CC2)cc1 -11.6%
N#C/C(=C/c1ccc(N2CCCCC2)o1)C(=O)Nc1ccc(Cl)cc1 -10.6%
CCn1c2ccccc2c2nnc(SCC(=O)NCc3cccs3)nc21 -1.86%
CC(C)CN(C)C(=O)CCc1nnc(Cc2cccc(C(F)(F)F)c2)o1 2.81%
Cc1ccccc1CSCCC(=O)NCCC1=CCCCC1 -36.7%
COC(OC)c1ccc(C#N)c(SCc2ccccc2)n1 -4.83%
COc1ccc(C(=O)Nc2cc(C)on2)cc1 -6.55%
CCOC(=O)N1CCC(N2CCCC(C(=O)c3ccccc3OC)C2)CC1 (configuration not stated) -5.82%
O=C(N/N=C\c1cc(Cl)ccc1O)c1ccc(S(=O)(=O)N2CCCCC2)cc1 2.98%
CCOC(=O)c1c(NC(=O)Cc2cccs2)sc(C(=O)NC2CCCC2)c1C 14.3%
Cc1nc2cc(S(=O)(=O)N3CCC(C(=O)O)CC3)ccc2n1C1CCCC1 10.4%
Cc1cc(C)n(CC(=O)N/N=C/c2cccc([N+](=O)[O-])c2)n1 -10.9%
O=C(CSc1nnc(NC(=O)C2CC2)s1)Nc1ccc(F)cc1 7.81%
Cc1c(NC(=O)/C(C#N)=C/c2ccccc2)c(=O)n(-c2ccccc2)n1C -11.7%
N#Cc1cnn2cc(CCN3CCOCC3)c(-c3ccc(F)cc3)nc12 -12.3%
O=C(CN1CCN(c2ccccc2)CC1)Nc1ccccc1Cl -0.226%
